The list shows a part of the results.
What was measured:
HSkMC = human skeletal muscle cells; test: cytotoxicity call (relative viability < 0.9); conditions: 10 µM
HepG2 = test: cytotoxicity call (relative viability < 0.9); conditions: 10 µM
S. aureus RN4220 = test: growth inhibition call (relative growth <= 0.2); conditions: 50 µM

| Compound | cytotoxicity call (HSkMC) | cytotoxicity call (HepG2) | growth inhibition call (S. aureus RN4220) |
| --- | --- | --- | --- |
| C[C@@H]1CCCCO[C@H](CN(C)Cc2ccc(C(=O)Nc3ccccc3N)cc2)[C@@H](C)CN([C@H](C)CO)C(=O)c2cc(NC(=O)c3ccccc3)ccc2O1 | inactive | active | inactive |
| Cc1noc(C)c1NC(=O)Nc1ccc2c(c1)C(=O)N([C@H](C)CO)C[C@@H](C)[C@@H](CN(C)C(=O)C1CCCCC1)OCCCC[C@H](C)O2 | inactive | inactive | inactive |
| CO[C@@H]1CN(C)C(=O)c2ccc(NS(=O)(=O)CC(F)(F)F)cc2OC[C@H](C)N(Cc2cccnc2)C[C@H]1C | inactive | inactive | inactive |
| CNc1nc(OCC#N)nc(N2CCCCC2)n1 | inactive | inactive | inactive |
| O=C1O[C@@H](c2ccccc2)[C@@H](c2ccccc2)N2[C@@H](c3ccc(OCCO)cc3)[C@]3(C(=O)Nc4ccc(C#CC5=CCCCC5)cc43)[C@@H](C(=O)N3CCCCCCC3)[C@H]12 | inactive | active | inactive |
| C[C@@H]1CN([C@H](C)CO)C(=O)c2cccc(NC(=O)C3CC3)c2O[C@H]1CN(C)Cc1ccc(C(=O)O)cc1 | inactive | inactive | inactive |
| CN1CCN(C(=O)[C@@H]2[C@@H](CO)[C@@H]3Cn4c(ccc(-c5cncnc5)c4=O)[C@@H]3N2CC2CC2)CC1 | inactive | inactive | inactive |
| C[C@@H]1CCCCO[C@@H](CN(C)C(=O)CCC(F)(F)F)[C@H](C)CN([C@@H](C)CO)C(=O)c2cc(NS(=O)(=O)c3ccc(Cl)cc3)ccc2O1 | inactive | inactive | inactive |
| C[C@@H]1CCCCO[C@@H](CN(C)S(=O)(=O)c2ccc(Cl)cc2)[C@H](C)CN([C@H](C)CO)C(=O)c2cc(NC(=O)NC3CCCCC3)ccc2O1 | inactive | active | inactive |
| NC1CCSCC1 | inactive | inactive | inactive |
| COc1ccccc1-c1ccc2c(c1)O[C@@H](CN(C)C(=O)c1cccnc1)[C@@H](C)CN([C@H](C)CO)S2(=O)=O | inactive | inactive | inactive |
| C[C@@H]1CN([C@H](C)CO)C(=O)CCCn2cc(nn2)CO[C@H]1CN(C)C(=O)Nc1ccc(C(C)(C)C)cc1 | inactive | inactive | inactive |
| C=CCOC(=O)[C@H]1[C@@H]2C(=O)O[C@@H](c3ccccc3)[C@@H](c3ccccc3)N2[C@@H](c2ccc(OCCOC(=O)[C@@H]3C[C@@H]4C(=O)N[C@@H](CC(C)C)C(=O)N4[C@@H]3c3cccc(OCCO)c3)cc2)[C@]12C(=O)Nc1ccc(I)cc12 | inactive | inactive | inactive |
| COCC(=O)Nc1ccc2c(c1)C(=O)N(C)C[C@@H](OC)[C@@H](C)CN(C(=O)Cc1cccnc1)[C@@H](C)CO2 | inactive | inactive | inactive |
| C[C@H]1CN([C@@H](C)CO)S(=O)(=O)c2ccc(C#CCN(C)C)cc2O[C@@H]1CN(C)C(=O)C1CCCCC1 | inactive | inactive | inactive |
| CC[C@@H](C)SSc1ncc[nH]1 | active | inactive | active |
| CN(C)CC(=O)N[C@@H]1C=C[C@@H](CC(=O)NCCN2CCCCC2)O[C@@H]1CO | inactive | inactive | inactive |
| COc1ccc(S(=O)(=O)Nc2ccc3c(c2)C(=O)N([C@@H](C)CO)C[C@@H](C)[C@@H](CN(C)C(=O)Nc2ccc(C(F)(F)F)cc2)OCCCC[C@@H](C)O3)cc1 | inactive | active | inactive |
| COC(=O)C[C@@H]1C[C@@H](C)[C@@H]2C(=O)c3c(O)c4c(c(O)c3C(=O)[C@@H]2[C@@H]1O)[C@H]1C[C@@H](O)[C@@]4(O)[C@@H](C)O1 | inactive | active | inactive |

| Compound | cytotoxicity call (HSkMC) | cytotoxicity call (HepG2) | growth inhibition call (S. aureus RN4220) |
| --- | --- | --- | --- |
| COc1ccc([Si](C)(C)[C@H]2[C@H](CCOC(=O)NCCCCCC(=O)NO)O[C@]3(C(=O)N(Cc4cccc(N5CCCCC5=O)c4)c4ccccc43)[C@@H]2C)cc1 | inactive | inactive | inactive |
| O=C(C[C@@H]1CC[C@H]2[C@@H](COC[C@H](O)CN2C(=O)Nc2ccc(C(F)(F)F)cc2)O1)NCCc1ccncc1 | inactive | inactive | active |
| NC(=O)c1cccc(CN2CCOCC2)c1 | inactive | inactive | inactive |
| COc1ccc(CN(C)C[C@@H]2OCCCC[C@@H](C)Oc3ccc(NC(=O)Nc4ccc5c(c4)OCO5)cc3C(=O)N([C@@H](C)CO)C[C@H]2C)cc1 | inactive | active | inactive |
| C[C@H]1CCCCO[C@H](CN(C)Cc2ccc(C(=O)O)cc2)[C@@H](C)CN([C@@H](C)CO)C(=O)c2cc(NC(=O)NC3CCCCC3)ccc2O1 | inactive | inactive | inactive |
| O=c1ncccn1[C@H]1O[C@H](CO)[C@@H](O)[C@@H]1O | inactive | inactive | inactive |
| CO[C@@H]1CN(C)C(=O)c2ccc(NC(=O)Nc3ccccc3Cl)cc2OC[C@@H](C)N(Cc2ccccc2C(=O)O)C[C@H]1C | inactive | inactive | inactive |
| C[C@H](CO)N1C[C@H](C)[C@H](CN(C)Cc2ccc(C(=O)O)cc2)Oc2ccc(NS(=O)(=O)c3cn(C)cn3)cc2CC1=O | inactive | inactive | inactive |
| COc1ccc(S(=O)(=O)N(C)C[C@H]2OCCCC[C@H](C)Oc3ccc(NC(=O)CCC(F)(F)F)cc3C(=O)N([C@@H](C)CO)C[C@H]2C)cc1 | inactive | inactive | inactive |
| CN1C(=O)c2cc(NC(=O)Cc3cccs3)ccc2OC[C@@H]2O[C@@H](CC(=O)NCCc3ccncc3)CC[C@@H]21 | inactive | inactive | inactive |
| COc1ccc(S(=O)(=O)N(C)C[C@H]2Oc3ccc(NC(=O)c4ccncc4)cc3CC(=O)N([C@@H](C)CO)C[C@@H]2C)cc1 | inactive | inactive | inactive |
| C[C@@H]1CN([C@H](C)CO)C(=O)c2cc(NC(=O)Nc3ccc(F)cc3)ccc2O[C@H]1CN(C)Cc1ccc(Cl)c(Cl)c1 | inactive | inactive | inactive |
| Cc1noc(C)c1NC(=O)N(C)C[C@@H]1Oc2c(NS(=O)(=O)c3ccccc3)cccc2C(=O)N([C@H](C)CO)C[C@@H]1C | inactive | inactive | inactive |
| COc1ccc(NC(=O)N(C)C[C@H]2OCCCC[C@@H](C)Oc3ccc(NC(=O)Nc4ccc(C(F)(F)F)cc4)cc3C(=O)N([C@@H](C)CO)C[C@H]2C)cc1 | inactive | inactive | inactive |
| Cc1cn([C@H]2C=C[C@@H](CO)O2)c(=O)[nH]c1=O | inactive | inactive | inactive |
| CN(C)CCCNC(=O)C[C@H]1CC[C@H]2[C@@H](COc3ccc(NC(=O)c4ccccc4F)cc3C(=O)N2C)O1 | inactive | inactive | inactive |
| CCCCC[C@@H](C)N | inactive | inactive | inactive |
| C[C@@H]1CCCCO[C@H](CN(C)C(=O)Nc2ccccc2)[C@@H](C)CN([C@@H](C)CO)C(=O)c2cc(NS(=O)(=O)c3cccs3)ccc2O1 | inactive | active | inactive |
| Cl.NC(=O)CCC(N)C(=O)O (stereo not drawn) | inactive | inactive | inactive |

| Compound | cytotoxicity call (HSkMC) | cytotoxicity call (HepG2) | growth inhibition call (S. aureus RN4220) |
| --- | --- | --- | --- |
| COc1ccc(S(=O)(=O)N(C)C[C@@H]2Oc3c(NC(=O)Nc4c(C)noc4C)cccc3C(=O)N([C@@H](C)CO)C[C@@H]2C)cc1 | inactive | inactive | inactive |
| C[C@@H]1CN([C@@H](C)CO)S(=O)(=O)c2ccc(C#CC(C)(C)O)cc2O[C@H]1CN(C)Cc1ccccc1 | inactive | inactive | inactive |
| O=C(O)[C@@H]1CC(=O)N(C2CCCC2)C1 | inactive | inactive | inactive |
| C[C@H]1CCCCO[C@@H](CN(C)C(=O)Cc2ccccc2)[C@@H](C)CN([C@@H](C)CO)C(=O)c2cc(NS(=O)(=O)c3cccs3)ccc2O1 | inactive | inactive | inactive |
| C[C@H]1CCCCO[C@H](CN(C)C(=O)Cc2ccccc2)[C@@H](C)CN([C@@H](C)CO)C(=O)c2cc(NC(=O)Nc3ccc4c(c3)OCO4)ccc2O1 | inactive | inactive | inactive |
| C[C@@H]1CCCCO[C@H](CN(C)C(=O)Nc2ccc(F)cc2)[C@H](C)CN([C@H](C)CO)C(=O)c2cc(NC(=O)C3CCCCC3)ccc2O1 | inactive | inactive | inactive |
| C[C@H]1CN([C@@H](C)CO)C(=O)c2cccc(NC(=O)c3cnccn3)c2O[C@H]1CN(C)C(=O)Nc1ccc(F)cc1 | inactive | inactive | inactive |
| CC(C)(C)[S@](=O)N1Cc2cc(C(=O)NCc3ccc4c(c3)OCO4)nc(-c3cccc(-c4cccnc4)c3)c2[C@@H]1CCO | inactive | inactive | inactive |
| CCCOc1ccccc1-c1nc2[nH]nnc2c(=O)[nH]1 | inactive | inactive | inactive |
| Clc1cc(Cl)cc(Oc2nc(-c3ccccc3)ns2)c1 | inactive | inactive | inactive |
| CC(C)C[C@@H]1NC(=O)[C@H]2C[C@@H](C(=O)NCCCC[N+](C)(C)C)[C@@H](c3cccc(OCCO)c3)N2C1=O | inactive | inactive | inactive |
| C[C@H]1CN([C@@H](C)CO)S(=O)(=O)c2ccc(-c3ccncc3)cc2O[C@H]1CN(C)C(=O)c1cccc(F)c1 | inactive | inactive | inactive |
| Cc1ccc(S(=O)(=O)Nc2ccc3c(c2)C(=O)N([C@@H](C)CO)C[C@@H](C)[C@@H](CN(C)C(=O)NC(C)C)O3)cc1 | inactive | inactive | inactive |
| C[C@H]1CN([C@@H](C)CO)S(=O)(=O)c2ccc(C#Cc3ccccc3)cc2O[C@@H]1CN(C)C(=O)CN(C)C | inactive | inactive | inactive |
| C[C@H]1CN([C@@H](C)CO)C(=O)Cc2cc(NS(C)(=O)=O)ccc2O[C@@H]1CN(C)C(=O)Nc1ccc(C(F)(F)F)cc1 | inactive | inactive | inactive |
| CN1CCN(C(=O)C[C@H]2CC[C@@H]3[C@H](COC[C@@H](O)CN3C(=O)Nc3ccc4c(c3)OCO4)O2)CC1 | inactive | inactive | inactive |
| C1CNCCN1 | inactive | inactive | inactive |
| COc1ccccc1S(=O)(=O)N(C)C[C@@H]1OCc2cn(nn2)CCCC(=O)N([C@H](C)CO)C[C@H]1C | inactive | inactive | inactive |
